Data taken from PMC6212790.
This is one part of the list. At the low end of the ranking, values are background and their order means little.

The sequences below were run against T1, GST-Rok-C97-191 (UniProt O34857) (assay: protein binding microarray). Details: Rok is a gene silencer of Bacillus subtilis; high values mean tight binding; most listed sequences are background and not binding sites; double strand, one strand shown.
T1 sequence: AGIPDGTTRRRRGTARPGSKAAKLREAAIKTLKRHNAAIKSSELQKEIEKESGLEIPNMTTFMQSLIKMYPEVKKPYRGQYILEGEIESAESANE
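Also: rank score from −0.5 (least bound) to 0.5 (best bound).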

| Sequence | binding signal [E-score] |
| --- | --- |
| GCTGCAAA | 0.0301 |
| CAGCCACG | -0.162 |
| ACGAGAAA | -0.086 |
| AAATGATG | -0.0075 |
| AGCATTGA | 0.0146 |
| AGTTGTGA | 0.0563 |
| ACAGCGCC | -0.311 |
| CAGGCCCC | -0.282 |
| AAATACAG | 0.123 |
| ACTGCAGA | 0.00119 |
| ACCAAATC | 0.11 |
| AATCCTCT | 0.00921 |
| CTGTGTTC | -0.0847 |
| ATAATTAC | 0.332 |
| CGCCTACG | -0.0439 |
| CAACTCCC | -0.0312 |
| CAGCATCA | 0.0456 |
| ATAAGGAA | 0.0521 |
| ATGTACAC | 0.238 |
| CTCCACTA | 0.107 |
| CGGACTTC | -0.162 |
| CCAGTAAC | -0.0778 |
| AGTGGCCA | -0.188 |
| CTCGGTAC | 0.111 |
| ACGGCAGA | -0.0257 |

| Sequence | binding signal [E-score] |
| --- | --- |
| ACGATTCG | -0.11 |
| ATCACGAG | -0.0497 |
| ATCAAGAA | -0.0571 |
| AAAATCTT | -0.0838 |
| CGGTAGTC | 0.174 |
| GTTTTTTA | 0.15 |
| GGAGCCTA | -0.33 |
| CTGGTTCA | -0.101 |
| AGGCTTCA | -0.0481 |
| CTGAGAAA | 0.0203 |
| AGGGCCGC | -0.335 |
| GTGACAAA | 0.0673 |
| AAAGCAAC | -0.0343 |
| CCACAATA | 0.2 |
| TACACGAA | 0.0959 |
| CCAAAAGC | -0.0996 |
| CTCCTATC | 0.00619 |
| AATCGATA | 0.214 |
| GAGAGAGA | -0.111 |
| AGGCTTAT | 0.0397 |
| AGAACCCC | -0.293 |
| GAAGAACA | -0.0668 |
| AGAAGCAA | 0.194 |
| ATGCCTTG | 0.0183 |
| CGGCTGTA | -0.047 |

| Sequence | binding signal [E-score] |
| --- | --- |
| GCCAGCTA | 0.0405 |
| CCCGTACA | -0.114 |
| GAGGGAAA | -0.161 |
| ACCGACTA | 0.0663 |
| GAAATCTC | 0.209 |
| AGTCGGAT | -0.085 |
| ACTTTACC | 0.094 |
| CGCTCGAG | -0.0761 |
| GCAGGACC | -0.239 |
| CGTTGTTA | 0.102 |
| GAAATGCA | -0.0957 |
| GGGCCGGA | -0.259 |
| GGTACGCA | -0.136 |
| AAGACGAT | -0.226 |
| AGCTCATA | 0.0471 |
| AGGATTCA | -0.0646 |
| GAGCTCAA | -0.0643 |
| ACCACACT | -0.0178 |
| CCGCACTC | -0.333 |
| GGAATCTA | 0.339 |
| GCGCTGCA | -0.212 |
| CCATTTGC | -0.0125 |
| AGTCATCG | -0.0441 |
| AGATGGTC | 0.089 |
| AGCAGGTA | 0.00328 |

| Sequence | binding signal [E-score] |
| --- | --- |
| AAGTGAGC | -0.0867 |
| ACGCCGTG | -0.131 |
| GTTTACCA | -0.0712 |
| AGTTCAAC | 0.0835 |
| GAAGGTGA | -0.134 |
| GGCGTCAA | -0.0906 |
| AGGATAAG | 0.161 |
| AAATTTCA | 0.156 |
| GAGTGTGC | -0.219 |
| GATTTCGC | 0.0941 |
| AACGACCA | -0.104 |
| ACGCTGCC | -0.2 |
| GACTCATA | -0.063 |
| AGTATAGG | 0.315 |
| AACGCCGC | -0.261 |
| GGTCTTTA | 0.0351 |
| CACGCTTC | -0.241 |
| GCGAATGA | -0.144 |
| AGCGACGA | 0.0827 |
| ACACCAGT | -0.109 |
| CCGAACGC | -0.0972 |
| CAGTTGGG | -0.107 |
| GTTTGTGA | 0.11 |
| CAGTGCCC | -0.0787 |
| CGTTCGGC | -0.0694 |

| Sequence | binding signal [E-score] |
| --- | --- |
| ACCGCAAT | 0.0391 |
| CAAGCTTA | -0.022 |
| AGCGTGAT | 0.0184 |
| AAACTACT | 0.464 |
| CGTGGGCC | -0.272 |
| GATGGAAC | -0.111 |
| CGTTATAC | 0.257 |
| GTTGCGAA | -0.15 |
| CATATATC | 0.279 |
| AGCTGCCC | -0.165 |
| AGTTTCCG | 0.112 |
| ACATTATG | 0.0538 |
| AACGATCG | -0.132 |
| CTAGCGCA | 0.195 |
| AGAGGTTA | 0.0179 |
| CCAGGAAG | -0.0444 |
| CGTAAGTC | -0.00837 |
| TAAGTACA | 0.35 |
| CAGCTGAA | -0.13 |
| CTCAACTA | 0.146 |
| TTAAACAA | 0.065 |
| CAAATATG | 0.161 |
| AAATTATT | 0.296 |
| ATAGTTGC | 0.306 |
| AGTACGCC | -0.0846 |

| Sequence | binding signal [E-score] |
| --- | --- |
| CCTATCCC | -0.131 |
| AAGAAAAC | -0.235 |
| TAGCCATA | 0.124 |
| AGCGACGC | -0.221 |
| GAAACCGC | 0.00507 |
| CCGGAAAG | -0.101 |
| ACGTTCAA | -0.0251 |
| ATCAGATA | 0.133 |
| GCGGTAGC | 0.0462 |
| AGGTGGGC | -0.3 |
| AATCATCG | -0.145 |
| CTTGATAC | 0.115 |
| CGTTAACA | 0.021 |
| AACTACAT | 0.364 |
| CTACGCTA | 0.244 |
| GTACGGCA | -0.0127 |
| CAGCACAA | -0.0318 |
| AATGCAAT | 0.0863 |
| ATATGGAA | 0.208 |
| ATTTGCCG | 0.00153 |
| CTCAGCGC | 0.0797 |
| CTTCGATC | -0.16 |
| CCGAGAGG | -0.212 |
| ATATATTG | 0.419 |
| AGAATCCA | -0.0644 |

| Sequence | binding signal [E-score] |
| --- | --- |
| CTATACGC | 0.0808 |
| GCTGAGTA | -0.0511 |
| GGTATACC | 0.207 |
| CCGAGCGA | -0.239 |
| CTGGACCC | -0.377 |
| GACTGTGA | -0.149 |
| CAAATAGA | 0.16 |
| ACGATCAC | -0.239 |
| CATGCGAA | -0.0749 |
| AGGCATTA | 0.153 |
| AGACTCTC | -0.185 |
| GTTAGCAA | 0.187 |
| ACGCTTGC | -0.1 |
| CCTAATTC | 0.115 |
| CAGGATGC | -0.064 |
| CGCAGGAC | -0.301 |
| CCATAAGG | -0.214 |
| GGATGGAC | -0.187 |
| CATGCTGC | -0.187 |
| CCGTGGGA | -0.319 |
| AGAACGAC | -0.0999 |
| AGAAGCTA | 0.0771 |
| ATGCCTGG | -0.108 |
| AGATATGA | 0.175 |
| ACTTATTG | 0.0793 |

| Sequence | binding signal [E-score] |
| --- | --- |
| TGGTAAAA | 0.337 |
| AGCCTCGG | -0.367 |
| ACACCTCC | -0.0446 |
| GGCGTTAC | -0.0381 |
| GTTGTGCA | 0.168 |
| AGCGCATC | -0.0204 |
| GGGGTATA | 0.01 |
| AAGAATCC | 0.0635 |
| GACATCCA | -0.0705 |
| ACCACAAT | 0.0536 |
| CGAAAAAC | -0.0633 |
| AAGCTAAT | 0.254 |
| ATGAAACC | -0.207 |
| CATCCAAG | -0.0858 |
| AAGCGAGG | -0.311 |
| ACGACAGT | 0.0839 |
| GAATCTTA | 0.0684 |
| ATACGCTA | 0.103 |
| ATCGGCGA | 0.0338 |
| TAGGACAA | 0.146 |
| CATTCTGG | -0.0917 |
| AATAGAGT | 0.0487 |
| CTGGACTC | -0.291 |
| AAGGATTC | -0.00702 |
| AATGTCTC | 0.0717 |

| Sequence | binding signal [E-score] |
| --- | --- |
| AGTCCGGC | -0.179 |
| GGTACAGA | -0.0072 |
| GTCAGGAC | -0.147 |
| ATGAGACG | -0.295 |
| CTCGCGGA | -0.148 |
| AGCCTATG | -0.235 |
| AACCTCGG | -0.032 |
| CATTATGC | 0.0911 |
| TCTACAGA | 0.179 |
| ATCCACAC | -0.0273 |
| CATTCATA | 0.181 |
| ATAGAACA | 0.282 |
| ACATTCTC | 0.0633 |
| AAAACAGG | 0.146 |
| ACCCCTAT | -0.0807 |
| CAAGTGCA | 0.000567 |
| ACACCCAT | -0.107 |
| CCCCAGTA | 0.021 |
| CGTCTGCA | -0.0581 |
